PubChem BioAssay (NCI)
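Values below derive from 48-hour exposures of cells grown in 96-well plates, with endpoints linearly interpolated between the two concentrations bracketing the appropriate inhibition level. GI50 is the concentration that inhibits growth by half. TGI marks complete inhibition of growth.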

System: NCI-H322M lung
Experiment: NCI anticancer screen, dose series, 48 h

SMILES	TGI [µM]	GI50 [µM]
COc1ccccc1C1c2cc3c(cc2OC(O)(CO)C1C(=O)O)OCO3 (stereo unspecified) (tested in a mixture with another compound)	> 100	–
CN(C)CCCN1c2ccccc2C(C)(C)c2ccccc21	28.6	–
O=Cc1ccccc1B(O)O	> 100	–
C[n+]1ccc(Nc2ccc(NC(=O)c3ccc(Nc4cc[n+](C)c5ccc([N+](=O)[O-])cc45)cc3[N+](=O)[O-])cc2)cc1	> 100	–
O=S(=O)(c1cccc2c(Cl)cccc12)N1CCCNCC1	23.8	11.4
CCC[CH2][Sn]([CH2]CCC)([CH2]CCC)[O]C(=O)c1ccc(Cl)cc1Cl	0.33	0.165
CN(C)CCCNc1c(C#N)[n+]([O-])c2cc(Cl)ccc2[n+]1[O-]	> 92.3	–
CCCC/C=C1\CCC(C)(CN(C)C)C1=O (stereo unspecified)	> 100	–
COc1cccc2c1/c(=C/c1ccc(N(C)C)cc1)c1cc(-c3ccccc3)[n+](C)n12	1.51	–
CN1C(=O)C(c2c[nH]c3ccccc23)N(C)C(=O)C1c1c[nH]c2ccccc12 (stereo unspecified)	> 100	–
CC(C)COCC(CN(Cc1ccccc1)c1ccccc1)N1CCCC1 (stereo unspecified)	21.1	8.42
N#Cc1cc(-c2nc3c(F)cccc3s2)ccc1N	> 100	–
Oc1ccc(Cc2nccc3cc(O)c(O)cc23)cc1O	> 100	–
Cc1ccc([N+](=O)[O-])cc1NC(=O)c1cccc([N+](=O)[O-])c1O	95.3	–
CC(C)c1c(O)ccc2c1CCC1C(C)(C)CCCC21C (stereo unspecified)	32.1	–
C=CCN1C(=O)/C(=C/c2ccc(C)cc2)NC1=S	> 100	–
COC(=O)CCC1CCC(c2cc(F)ccc2F)(S(=O)(=O)c2ccc(Cl)cc2)CC1 (stereo unspecified)	> 100	> 100
Cc1ccc2c(c1)C(C)Cc1c(Cl)ncnc1N2C (stereo unspecified)	21	2.41
C/C(=N\NC(=S)N1CCN(C)CC1)c1nc2ncccc2[nH]1	> 100	–
Cc1ccc(C(=O)Nc2ccc(CP(=O)(O)O)cc2CP(=O)(O)O)cc1NC(=O)c1cccc(NC(=O)Nc2cccc(C(=O)Nc3cc(C(=O)Nc4ccc(CP(=O)(O)O)cc4CP(=O)(O)O)ccc3C)c2)c1	> 100	–
O=C(NNCc1ccco1)c1cc2ccccc2[nH]1	> 100	–
